For 54 sequences, binding signal results are on record in paper PMC7819943, “Rice protein-binding microarrays: a tool to detect cis-acting elements near promoter regions in rice”.

The other results are listed elsewhere or left out.

The assay deals with T1, OsWOX13 (Oryza sativa, UniProt Q5QMM3 1-267).
T1 sequence: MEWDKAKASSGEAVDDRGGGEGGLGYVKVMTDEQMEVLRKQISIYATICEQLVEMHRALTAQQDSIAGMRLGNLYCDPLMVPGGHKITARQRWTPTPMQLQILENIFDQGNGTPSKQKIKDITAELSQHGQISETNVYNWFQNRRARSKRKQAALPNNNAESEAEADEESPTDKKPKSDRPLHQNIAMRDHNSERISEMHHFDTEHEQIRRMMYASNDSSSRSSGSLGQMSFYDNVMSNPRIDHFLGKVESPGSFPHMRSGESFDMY
Description: protein-binding microarray (RPBM); PBS, 2% BSA, 51.3 ng/ul salmon testes DNA, 50 uM zinc acetate, 200 nM TF, 25 C, 1 h; high values mean tight binding. To be noted: protein: recombinant; tags: N-terminal polyhistidine and DsRed monomer fusion (pET32a); label: CyDye5-dUTP incorporated in the synthesized complementary strand; 3' TTTTT single-stranded linker to array surface; dsDNA, one strand shown. In outline: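 The binding signal for each feature is its fluorescence intensity in arbitrary units. An Axon 4000B scanner was used to read a custom Agilent array that had been made double-stranded with Cy5-dUTP primer extension, blocked with 2% BSA, incubated at 25 °C for 1 h with 200 nM protein in PBS, 2% BSA, salmon testes DNA and 50 µM zinc acetate, and washed. The protein was an N-terminal polyhistidine–DsRed transcription factor fusion from E. coli BL21-CodonPlus, purified on Ni–NTA.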
Regarding “GGGATGACAGCAACCTTACTGATGATGTAGACCTTCGGTTCGGAGTCACCTAGTGCAG”, the binding signal was 7120 fluorescence intensity (a.u.).
For the sequence “GAACTTCCAATCAAATCCGCTCCAGCAACAACCGAACACGCGGAGTCACCTAGTGCAG”, the binding signal was 6000 fluorescence intensity (a.u.).
Take “AACCTCGCAGGGATTGATTAGGATCGAAACTTGTGTTAAACGGAGTCACCTAGTGCAG”: the binding signal was 6640 fluorescence intensity (a.u.).
As for “ATGATTTCATAGTTAATAACCAAATTGACCTACTCTCTGTCGGAGTCACCTAGTGCAG”, the figure is 15600 fluorescence intensity (a.u.); as for “GGTAGTTCTATTTGTGATAGATTAACAACAATGGATGAATCGGAGTCACCTAGTGCAG”, 5290 fluorescence intensity (a.u.); as for “ACTAATGTTGATTGATTAAACATGCACACTATTAATGTTGCGGAGTCACCTAGTGCAG”, 44300 fluorescence intensity (a.u.).
With “TATAATAGATAGCCAAATTATATAATAGTTACGTATAAATCGGAGTCACCTAGTGCAG” the figure was 13600 fluorescence intensity (a.u.); with “GTTTGATGAGTATTAGGCGTGACACATGACAAATCACAGACGGAGTCACCTAGTGCAG”, 4350 fluorescence intensity (a.u.).
With “CCACTTTTAGATTTGACAATTAACTATTTGTCACTTTTAGCGGAGTCACCTAGTGCAG”, the binding signal is 23600 fluorescence intensity (a.u.).
As for “ATCAGTAATTTATCAATGTACTAAGACATGTTTTACAACTCGGAGTCACCTAGTGCAG”, the figure is 7880 fluorescence intensity (a.u.).
With “CACATATACATTTTCCAGTTATTGGCGAGAATGAAACCAGCGGAGTCACCTAGTGCAG” the figure was 3300 fluorescence intensity (a.u.); with “TATAAATTGAAAATGTGTTAAAACCGATGTACTGTACTACCGGAGTCACCTAGTGCAG”, 26800 fluorescence intensity (a.u.).
On to “CGCTGTTAATTCGTTATTTTGAGTATGTGTTTAGAGGTATCGGAGTCACCTAGTGCAG”, for which the binding signal is 3900 fluorescence intensity (a.u.).
As for “CTTTAATTTGGTCCAATATTTCATAGAGACAATAATATGTCGGAGTCACCTAGTGCAG”, the figure is 11200 fluorescence intensity (a.u.).
With “CTAACACACAAACTATTCAATTTGCCAATAAATTGGTAGGCGGAGTCACCTAGTGCAG” the figure was 8660 fluorescence intensity (a.u.); with “AATAACTGATAAAAGATATATGATTTTGGAGAAATGTGTGCGGAGTCACCTAGTGCAG”, 26100 fluorescence intensity (a.u.).
As for “TTAACATTGAATAATTGTTGATCTACAAGAAATTCCTGCCCGGAGTCACCTAGTGCAG”, the figure is 12000 fluorescence intensity (a.u.); as for “ATTGATGACTGAATTTCTCGGTCTCGGTCTTTTCGATCTCCGGAGTCACCTAGTGCAG”, 21300 fluorescence intensity (a.u.); as for “CATCCAAATTGGCAAAGGCCGCCTCTTTCTTTAATTAACCCGGAGTCACCTAGTGCAG”, 14100 fluorescence intensity (a.u.).
On to “TGCTGGCTGAATACTACTACCATGTCATCTATAGCCATCACGGAGTCACCTAGTGCAG”, for which the binding signal was 25300 fluorescence intensity (a.u.).
As for “TTTGCTAAATCATTGCGCAGATTAAAAGATGTAGAAAGCGCGGAGTCACCTAGTGCAG”, the figure is 4380 fluorescence intensity (a.u.); as for “CCAAAATTGACACGGAGAAAGAGCTGCAGCGATACCCCTCCGGAGTCACCTAGTGCAG”, 28000 fluorescence intensity (a.u.).
Turning to “GTATAAAAGCCAATTATTGGAGAGTAAGGCTCCATTTTCGCGGAGTCACCTAGTGCAG”, the binding signal was 6310 fluorescence intensity (a.u.).
With “ATTACAATGATTTCCCTAAACTTCTTTTCACAGTGTTGCTCGGAGTCACCTAGTGCAG” the figure was 10600 fluorescence intensity (a.u.); with “TGGAAAATTTTAAGTTATGCTAAATATATGTGTCATGCATCGGAGTCACCTAGTGCAG”, 3360 fluorescence intensity (a.u.); with “AACATATTGATTCGGTTAAGTACATGCCCATTAGGGTTGTCGGAGTCACCTAGTGCAG”, 5870 fluorescence intensity (a.u.).
With “GATTAAATTAATTAAGTATTAATACTAGCTATTACAAACTCGGAGTCACCTAGTGCAG” the figure was 27100 fluorescence intensity (a.u.).
With “TGCTAATGACTGATTAATTAGGCTTAATAAATTTGTCTCGCGGAGTCACCTAGTGCAG” the figure was 64800 fluorescence intensity (a.u.); with “CGATGATTGTAATCTCATTGAACAGATGATCCTTCAGGATCGGAGTCACCTAGTGCAG”, 52400 fluorescence intensity (a.u.); with “ATTTAATTGTATCATATATACTTAGTATTTACCAACATTTCGGAGTCACCTAGTGCAG”, 19500 fluorescence intensity (a.u.).
“ATAGATGATTTGGAGTTAATAGTAAGCTATACTATTAAACCGGAGTCACCTAGTGCAG”: the binding signal is 25100 fluorescence intensity (a.u.).
As for “TAAAACTTAATTAATGACGTGTTAAACGCTGCTTCGTTTTCGGAGTCACCTAGTGCAG”, the binding signal is 33300 fluorescence intensity (a.u.).
With “TTAATAGAAAATAAATTATTTAGAGTCCAACTCAATAAAACGGAGTCACCTAGTGCAG” the figure was 10200 fluorescence intensity (a.u.).
As for “AAAGTCAATAAATTAATTTAAAGACGTTTTCTAAAGTAATCGGAGTCACCTAGTGCAG”, the figure is 8930 fluorescence intensity (a.u.); as for “TACGTAATTGCAGATACAAATTATAGGGTTCAGGTACAAACGGAGTCACCTAGTGCAG”, 19300 fluorescence intensity (a.u.).
As for “TACCAGAGATTGACCAAAATGAGTATTTAAGGATGAGGAGCGGAGTCACCTAGTGCAG”, the figure is 11200 fluorescence intensity (a.u.).
With “AGCATGACAGGGAGACAAATTAGACTTACTCCAATTTTCTCGGAGTCACCTAGTGCAG”, the binding signal is 14600 fluorescence intensity (a.u.).
As for “TTCCTCTAATCACTAGTTATATATATATAGTTTGTCCCCTCGGAGTCACCTAGTGCAG”, the figure is 5920 fluorescence intensity (a.u.); as for “TTCTGAATTTTAATTAGCTTTATATTGTATTCCTATATGGCGGAGTCACCTAGTGCAG”, 13000 fluorescence intensity (a.u.); as for “GCGGATTAATTACTACTGGGCTGGCATTCTGATCACTTTGCGGAGTCACCTAGTGCAG”, 25400 fluorescence intensity (a.u.).
With “GAATGATTAGTATATATAAGTATGTAATATATCACGTCACCGGAGTCACCTAGTGCAG” the figure was 37000 fluorescence intensity (a.u.); with “TCATACGTGCCAATCAAATGATTATATTTAATTTGTAACTCGGAGTCACCTAGTGCAG”, 24200 fluorescence intensity (a.u.); with “ACTGGTTGACTGACTTGTAATAACGTCTGCCATCTCTCTCCGGAGTCACCTAGTGCAG”, 5520 fluorescence intensity (a.u.).
With “GAGCCTAATTAGTCCATGATTAGTCATAGTGCTACAGTAACGGAGTCACCTAGTGCAG” the figure was 45400 fluorescence intensity (a.u.); with “AGTATACGTGACGAGACATTACTGCTGTGTCGCGAGGCCCCGGAGTCACCTAGTGCAG”, 3370 fluorescence intensity (a.u.).
In the case of “TTATAATTTAAATTTTAACAACGGCTTATAAACTGTGAGGCGGAGTCACCTAGTGCAG”, the binding signal was 46800 fluorescence intensity (a.u.).
With “ATGTGATGGAAAAGTTGCAAGTTTGAAGAAAAGTTTTGGACGGAGTCACCTAGTGCAG” the figure was 4700 fluorescence intensity (a.u.); with “GTTATTATTGATGACATATGGGATAGGAAATCATGGGAATCGGAGTCACCTAGTGCAG”, 6050 fluorescence intensity (a.u.); with “TCAATTTATTAAATTTGTAATAGTTAAAACTTAGCTAACTCGGAGTCACCTAGTGCAG”, 4070 fluorescence intensity (a.u.).
With “CGAGTACTCCTAGTCAATCAATCGATTTCTCTCTATGGCGCGGAGTCACCTAGTGCAG”, the binding signal is 10700 fluorescence intensity (a.u.).
Take “CTTGATTATGAGCCCATGACTCTGGCCTTTGTATAGCCCACGGAGTCACCTAGTGCAG”: the binding signal was 41600 fluorescence intensity (a.u.).
As for “CTACTAATTGTTTTCGGTTTAAACAAATCAAAATTAGCTTCGGAGTCACCTAGTGCAG”, the figure is 41000 fluorescence intensity (a.u.).
With “ATTGTGATGAGGATAATGGCAGTGGGAGGTGGGTATCCCTCGGAGTCACCTAGTGCAG” the figure was 9560 fluorescence intensity (a.u.).
With “TTGATAGATTGATCGTTAGTGCTTTTGTCCAATTTGTTCACGGAGTCACCTAGTGCAG” the figure was 64200 fluorescence intensity (a.u.).
